# In PubChem BioAssay AID1768 (National Center for Advancing Translational Sciences (NCATS), 2009):
# Among all 270,000 compounds or so, about 620 (0.23%) were called active. The shares of active, inactive and inconclusive entries below differ from those in the screen. Calls come from the whole dose curve; as a rule, active = well fitted inhibition curve with a large enough effect in the polarisation, with a control signal flat (not every such curve was filed as active); inconclusive = small, poorly fitted or top-dose-only effect, or effect the other way, or a change in a side signal; inactive = no such curve, though single readings can be large or run the other way; the % refers to the polarisation. Where the call is inconclusive, the potency comes from a doubtful curve fit. “Side channel” marks fits to a control or component signal instead of the main read-out.
# Target: Menin (Homo sapiens) (UniProt O00255)
# Sequence of UniProt O00255 (O00255 whole entry, looked up): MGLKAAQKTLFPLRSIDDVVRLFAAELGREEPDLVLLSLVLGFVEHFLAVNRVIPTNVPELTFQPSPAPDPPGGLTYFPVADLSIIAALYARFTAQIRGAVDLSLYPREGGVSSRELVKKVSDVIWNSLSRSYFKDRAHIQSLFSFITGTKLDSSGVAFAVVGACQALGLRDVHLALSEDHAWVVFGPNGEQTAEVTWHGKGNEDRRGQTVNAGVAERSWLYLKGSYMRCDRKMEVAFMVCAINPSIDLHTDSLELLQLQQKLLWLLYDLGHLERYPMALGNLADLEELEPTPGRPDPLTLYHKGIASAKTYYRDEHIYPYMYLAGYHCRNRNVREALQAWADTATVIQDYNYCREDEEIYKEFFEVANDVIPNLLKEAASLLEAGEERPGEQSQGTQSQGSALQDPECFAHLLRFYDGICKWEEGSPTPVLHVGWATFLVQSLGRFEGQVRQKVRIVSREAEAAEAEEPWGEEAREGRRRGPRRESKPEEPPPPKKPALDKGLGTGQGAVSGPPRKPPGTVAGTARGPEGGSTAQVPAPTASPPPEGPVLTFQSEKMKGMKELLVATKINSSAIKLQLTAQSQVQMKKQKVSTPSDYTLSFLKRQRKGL
# Test: qHTS Assay for Inhibitors Targeting the Menin-MLL Interaction in MLL Related Leukemias: Competition With Texas Red Labeled MLL-derived Mutant Peptide; for FP activity change, negative = inhibition: % of control where 0% means no effect
# Conditions: fluorescence polarization; FP activity change, negative = inhibition: at 61.6 µM (top of the series)
# Potency is the fitted concentration of half-maximal effect; tags give direction and shape of the fitted curve or compound fluorescence and quenching.
Structure (SMILES),Potency,"FP activity change, negative = inhibition"
CCOC(=O)c1c(-c2ccccc2)cn2ccccc12,"inconclusive: 39.8 µM [inhibitor, single point]",–
O=C(/C=C/c1cccc([N+](=O)[O-])c1)Nc1cccc(NC(=O)c2ccco2)c1,"inconclusive: 31.6 µM [quencher, side channel, single point]",–
COc1ccc(CCNc2nc(-c3cccnc3)nc3ccccc23)cc1OC,–,inactive: 0.369%
CN1C2CCC1CC(NC(=O)c1cccc(C(F)(F)F)c1)C2 (stereo not drawn),"inconclusive: 12.6 µM [inhibitor, partial curve]",–
CCn1c(=O)cc(OCC(=O)NCc2ccc(C)o2)c2ccccc21,"inconclusive: 39.8 µM [inhibitor, single point]",–
O=C(OCc1nc2scc(-c3ccccc3)c2c(=O)[nH]1)c1cc([N+](=O)[O-])ccc1Cl,"inconclusive: 22.4 µM [quencher, side channel, partial curve]",–
O=C(NCc1n[nH]c(=S)n1-c1ccc(Br)cc1)c1cccs1,–,inactive: 19.2%
COc1ccc(-n2nc(C(=O)NCC(=O)NCc3ccc(F)cc3)c3ccccc3c2=O)cc1OC,"inconclusive: 39.8 µM [fluorescent, single point]",–
CCC(c1nnnn1Cc1ccccc1)N(Cc1cc2cc(OC)ccc2[nH]c1=O)CC1CCCO1 (stereo not drawn),"inconclusive: 3.55 µM [fluorescent, side channel, single point]",–
CCc1nc2ccc(C(=O)NCCc3ccccc3OC)cc2nc1CC,"inconclusive: 6.31 µM [fluorescent, side channel, partial curve]",–
COc1ncnc2c1NC1=C(S2)C(=NCCC(=O)O)CC(C)(C)C1,"inconclusive: 39.8 µM [fluorescent, side channel, single point]",–
CC(O)CNc1nc2sc3c(c2c(=O)n1CCc1ccccc1)CCCCC3 (stereo not drawn),"inconclusive: 25.1 µM [quencher, side channel, partial curve]",–
COc1ccc(/C=C/C(=O)Nc2cc(C(F)(F)F)ccc2Cl)cc1,"inconclusive: 6.31 µM [quencher, side channel, single point]",–
Cc1[nH]n(S(=O)(=O)Cc2ccccc2)c(=O)c1N=Nc1ccccc1Cl,"inconclusive: 25.1 µM [quencher, side channel, single point]",–
O=C(CCNC(=O)Cn1cnc2ccccc2c1=O)NCC1COc2ccccc2O1 (stereo not drawn),–,inactive: 0.63%
O=[N+]([O-])c1ccc(NCCOc2ccccc2Cl)nc1,"inconclusive: 20 µM [quencher, side channel, single point]",–
Nc1c(-c2cccs2)cnn1-c1nc(-c2ccc(F)cc2)cs1,"inconclusive: 5.62 µM [quencher, side channel, partial curve]",–
O=[N+]([O-])c1cccc(-c2cc3ccccc3[nH]2)c1,"inconclusive: 14.1 µM [quencher, side channel, partial curve]",–
C=CCc1cccc(CNc2ccc(Br)cc2)c1O,"inconclusive: 7.08 µM [quencher, side channel, partial curve]",–
C#Cc1ccc([C@@H]2C=C(C(=O)N3CCN(Cc4ccccc4)CC3)O[C@H](OCC)[C@H]2CCCO)cc1,"inconclusive: 2.82 µM [fluorescent, side channel, full curve]",–
COc1cc(C)ccc1OCCOc1cc(C)ccc1Cl,"inconclusive: 5.62 µM [quencher, side channel, partial curve]",–
CC(=O)OCC1=C(C(=O)O)N2C(=O)C(NC(=O)Cc3cccs3)C2SC1 (stereo not drawn),"inconclusive: 35.5 µM [inhibitor, single point]",–
COc1ccc(/C=N/Nc2ccccc2C(=O)O)cc1,"inconclusive: 10 µM [quencher, side channel, partial curve]",–
